Measurements from PubChem BioAssay AID686978 (National Center for Advancing Translational Sciences (NCATS), 2013).
Values joined by “and” are separate entries in the source; they are usually repeats but may differ in a detail not shown here. Identical values can stand only once. Among all 420,000 compounds or so, about 64,000 (15%) were called active. This list was built around the results that the source calls inconclusive (neither active nor inactive); the mix of calls is not that of the screen. Calls come from the whole dose curve; as a rule, active = well fitted inhibition curve with a large enough effect; inconclusive = small, poorly fitted or top-dose-only effect; inactive = flat fitted curve, though single readings scatter. Potencies of inconclusive entries are doubtful fits and often do not repeat.

Experiment: qHTS for Inhibitors of human tyrosyl-DNA phosphodiesterase 1 (TDP1): qHTS in cells in absence of CPT; note: nearly all actives have a fitted effect of over 55% in size
Conditions: DT40 Tdp1-/- hTDP1 cells, no CPT, ATP luminescence, 48 h; activity change, negative = growth inhibition: at 46.2 µM (top of the series) unless noted
Summary of the method: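 Readout: luminescence from CellTiter-Glo after 30 min in the dark at RT. Cells: DT40 Tdp1-/- with stable hTDP1, 400/well. Exposure: compounds alone, ≥48 hr, 37 °C.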
% is set by controls: 0 for no effect and ±100 for the full control effect; potency is the fitted concentration of half-maximal effect; tags give direction and shape of the fitted curve.

| Structure (SMILES) | Potency | activity change, negative = growth inhibition |
| --- | --- | --- |
| COc1ccc(OC)c(NC(=O)CNC(=O)Cn2ccc3ccccc3c2=O)c1 | inconclusive: 23.1 µM [inhibitor, single point] | – |
| CCOC(=O)C1(C)CCCCN1C(=O)c1ccc(N(C)C)cc1 (centres undefined) | inconclusive: 18.4 µM [inhibitor, partial curve] | – |
| COc1ccccc1N(Cc1cc(=O)[nH]c2ccccc12)C(=O)c1cccc([N+](=O)[O-])c1 | inconclusive: 23.1 µM [inhibitor, single point] | – |
| COC(=O)CSc1nnc(CNC(=O)c2cc(OC)cc(OC)c2)n1-c1ccc(F)cc1 | – | inactive: 1.34% |
| CC(C)CCOc1ccc(Cl)cc1CN1CCOCC1 | inconclusive: 20.6 µM [inhibitor, single point] | – |
| CN(c1ccccc1)S(=O)(=O)c1ccccc1Br | inactive and inconclusive: 35.5 µM [inhibitor, single point] | – |
| CNc1nc(C)cc(C)c1S(=O)(=O)c1ccc(C)cc1 | inconclusive: 14.6 µM [inhibitor, partial curve, poor fit] | – |
| O=C(Nc1cccc(O)c1)c1ccc(C(=O)c2ccccc2)o1 | inconclusive: 18.4 µM [inhibitor, single point] | – |
| Cc1sc2ncnc(N3CCC(C(=O)NNC(=O)COc4ccc(Br)cc4)CC3)c2c1C | active: 23.1 µM | – |
| CCc1ccc(-c2nc(SCC(=O)NC3CCCC3)n[nH]2)cc1 | active: 23.1 µM | – |
| Cc1cc(NC(=O)c2cccc(S(=O)(=O)N3CCCCCC3)c2)n(-c2ccccn2)n1 | active: 20.6 µM | – |
| CN(C)S(=O)(=O)c1cccc(NC(=O)c2ccc(S(=O)(=O)N3CCCCC3)cc2)c1 | inconclusive: 29.1 µM [inhibitor, single point] | – |
| CCC1Oc2ccc(C)cc2N(CC(=O)NCc2cccc(OC)c2)C1=O (centres undefined) | active: 10.3 µM | – |
| CCNC(=O)NNC(=O)C1CC(c2cccs2)=NO1 (centres undefined) | – | inactive: 1.39% |
| Cc1ccnc(NS(=O)(=O)c2ccc(NC(=O)C3CC3)cc2)n1 | – | inactive: 5.71% |
| COCCn1c(-c2cc(OC)c(OC)c(OC)c2)nc2oc3cc(OC)ccc3c(=O)c2c1=O | inconclusive: 18.4 µM [inhibitor, single point] | – |
| Cc1ccc(Sc2ncccc2COC(=O)Nc2c(C)cccc2C)cc1 | inconclusive: 29.1 µM [inhibitor, single point] | – |
| COCCCNCCOCCOc1ccc(Cl)cc1Br | inconclusive: 29.1 µM [inhibitor, single point] | – |
| c1cnc2ccc(-n3ccnc3)cc2c1 | inconclusive: 16.4 µM [inhibitor, partial curve] | – |
